Out of some 310,000 compounds screened, about 14,000 (4.5%) showed an effect of 50% or more. The effect is printed as a negative number. The list shows a part of the results.
The compounds below were run against human ether-à-go-go-related gene (hERG) potassium channel (human, UniProt Q12809) (assay: primary screen, population patch clamp on CHO cells stably expressing hERG).
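Further: peak tail current of the secondary pulse compared with the same well before compound.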

Sequence of human ether-à-go-go-related gene (hERG) potassium channel (Q12809 whole entry, looked up): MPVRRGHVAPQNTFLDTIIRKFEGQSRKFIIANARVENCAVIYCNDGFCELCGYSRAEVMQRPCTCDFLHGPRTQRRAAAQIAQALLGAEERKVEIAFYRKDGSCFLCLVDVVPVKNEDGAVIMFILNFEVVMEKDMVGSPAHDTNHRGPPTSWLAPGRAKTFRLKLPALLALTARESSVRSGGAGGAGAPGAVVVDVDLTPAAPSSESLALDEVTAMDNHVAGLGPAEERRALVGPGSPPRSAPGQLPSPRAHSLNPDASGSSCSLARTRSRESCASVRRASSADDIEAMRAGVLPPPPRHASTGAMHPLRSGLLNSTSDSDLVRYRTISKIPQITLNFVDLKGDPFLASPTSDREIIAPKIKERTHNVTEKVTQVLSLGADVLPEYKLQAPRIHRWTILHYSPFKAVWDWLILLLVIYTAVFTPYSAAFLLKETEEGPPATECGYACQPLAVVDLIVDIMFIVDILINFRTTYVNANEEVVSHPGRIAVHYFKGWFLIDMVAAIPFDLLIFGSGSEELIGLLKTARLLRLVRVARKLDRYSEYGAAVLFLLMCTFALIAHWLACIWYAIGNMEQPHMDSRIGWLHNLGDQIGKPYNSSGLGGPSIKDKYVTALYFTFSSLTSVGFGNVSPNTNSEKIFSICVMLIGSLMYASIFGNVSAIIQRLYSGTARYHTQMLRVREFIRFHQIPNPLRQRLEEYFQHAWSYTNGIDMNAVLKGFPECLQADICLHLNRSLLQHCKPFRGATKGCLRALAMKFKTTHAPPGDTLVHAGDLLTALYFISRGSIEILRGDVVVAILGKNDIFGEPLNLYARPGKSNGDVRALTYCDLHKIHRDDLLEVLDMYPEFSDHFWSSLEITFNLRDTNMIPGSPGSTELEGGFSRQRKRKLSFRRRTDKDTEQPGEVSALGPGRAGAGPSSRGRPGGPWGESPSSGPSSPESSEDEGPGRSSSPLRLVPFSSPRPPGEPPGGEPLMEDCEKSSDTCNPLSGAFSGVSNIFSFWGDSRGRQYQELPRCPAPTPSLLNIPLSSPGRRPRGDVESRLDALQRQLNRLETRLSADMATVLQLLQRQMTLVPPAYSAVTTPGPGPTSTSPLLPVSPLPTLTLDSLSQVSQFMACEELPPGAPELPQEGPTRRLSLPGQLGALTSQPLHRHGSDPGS

| Compound | hERG current change (%, negative = inhibition) at 10uM |
| --- | --- |
| Nc1ncc2c(n1)CC(c1ccco1)CC2=O (stereo not shown) | 14.3% |
| Cn1c(CCNC(=O)c2ccco2)nc2cc(NS(=O)(=O)c3ccccc3)ccc21 | -6.01% |
| O=C1CN(C(=O)CNC(=O)c2cccc(Cl)c2)c2ccccc2N1 | 2.69% |
| Cc1ccc2c(c1)N(CC(=O)NCCc1ccc(Cl)cc1)C(=O)c1cccnc1O2 | -38.9% |
| CC(=O)Nc1ccc(S(=O)(=O)N(CCCN2CCOCC2)Cc2cccs2)cc1.O=C(O)C(=O)O | -20.9% |
| Cc1ccc(C)c(C(=O)C(C)OC(=O)c2cccn2C)c1 (stereo not shown) | -4.35% |
| CN(CC(=O)NC1CCCCCC1)S(=O)(=O)c1ccccc1 | -7.74% |
| CCOc1ccc(OCC)c(-c2c(=O)n(OCc3ccccc3C(=O)OC)c3ccccc3[n+]2[O-])c1 | -28.8% |
| CC1(C)NC(=O)N(CC(=O)OCC(=O)Nc2cccc(S(N)(=O)=O)c2)C1=O | 1.63% |
| Cc1csc(NC(=O)CSc2ccc(-c3ccccn3)nn2)n1 | -73.6% |
| NS(=O)(=O)c1ccc(CNC(=O)CSc2nc3ccc(Cl)cc3[nH]2)cc1 | 18.9% |
| O=C(NNS(=O)(=O)c1ccccc1[N+](=O)[O-])c1cccc(Cl)c1 | 2.58% |
| CN1CCc2c(sc(NC(=O)Cc3ccccc3)c2C#N)C1.Cl | -7.24% |
| Cc1ccc(S(=O)(=O)N2CCC(C)CC2)cc1C(=O)NCCN1CCOCC1 | 11.4% |
| CN(C)CCCCCNCCCNC(=O)/C=N\O | 9.07% |
| CC(C)c1csc(CN2CCN(Cc3ccccc3)C(CCO)C2)n1 (stereo not shown) | -26.3% |
| COc1ccc2cc(C(=O)c3ccccc3)c(=O)oc2c1 | 9.44% |
| CCc1ccc(-c2cc(C(=O)Nc3ccc(S(=O)(=O)NC(C)=O)cc3)c3ccccc3n2)cc1 | 4.85% |
| COc1ccc(N/C(=C(/C(Cl)=C(Cl)Cl)[N+](=O)[O-])n2nnc3ccccc32)cc1 | 0.557% |
| N/C(=N\c1nc(CSc2ccc(Cl)cc2)cc(=O)[nH]1)Nc1ccccc1C(F)(F)F | 16.8% |
| CC(C)OC(=O)c1sc2nc3c(cc2c1N)C(=O)CCC3 | 5% |
| CCN(CC)P(c1n(C)cc[n+]1C)N(CC)CC.[I-] | 10.6% |
| O=C(O)c1cccc(N/N=C/c2cc(Br)cc(Br)c2O)c1 | 18.9% |
| Cc1ccc(C(=O)Nc2ccccc2C(=O)O)cc1S(=O)(=O)NC1CCCCC1 | -15.2% |
| CC1CN(S(=O)(=O)c2cccc(C(=O)NN3CCN(C)CC3)c2)CC(C)O1.Cl (stereo not shown) | 2.62% |
| CN(CC1CCN(CCc2cccc(C(F)(F)F)c2)CC1)C(=O)c1ccc(F)cc1F | -69.9% |
| COc1ccc(S(=O)(=O)N2CCOC2CNC(=O)C(=O)NCc2ccccc2OC)cc1 (stereo not shown) | -7.74% |
| CCOC(=O)c1cccc(NS(=O)(=O)c2c(C)[nH]c(=O)[nH]c2=O)c1 | 4.38% |

| Compound | hERG current change (%, negative = inhibition) at 10uM |
| --- | --- |
| Oc1ccc(-c2cnns2)c(O)c1 | 13.9% |
| Cc1cccc(NC(=O)C(C)N2C(=O)c3ccccc3S2(=O)=O)n1 (stereo not shown) | -15.9% |
| O=S(=O)(CCc1ccccc1)N1CCOCC1 | 6.17% |
| CCN1C(N(C)CCc2cccs2)=N[C@@H](c2ccccc2)C(C(=O)OC)=C1C | -53.8% |
| N#C/C(=C\c1c(N2CCCCCC2)nc2ccccn2c1=O)C(N)=O | 3.96% |
| CN(c1ccccc1)S(=O)(=O)c1ccc(NC(=O)C2CC2)cc1 | 0.00628% |
| CN(C(=O)c1ccc(NC(=O)Cc2cccc(NC(=O)C3CCN(C(=O)c4ccccc4)CC3)c2)cc1)C1CCCC1 | 5.6% |
| O=C(NCCC1=CCCCC1)C1CCN(c2nc3ccccc3o2)CC1 | -13.9% |
| O=C(O)C=C1CCN(c2ncc(C(F)(F)F)cc2Cl)CC1 | 14.5% |
| Cn1cc(CN2CCN(CCO)CC2)c(-c2ccc(Oc3ccccc3)cc2)n1 | -32.3% |
| Cn1c(=O)c2c(n(Cc3ccccc3)c1=O)NC(=O)C2CC(=O)NCc1cccc(Cl)c1 (stereo not shown) | -8.83% |
| O=C(c1ccc2c(=O)n(-c3ccccc3)c(=S)[nH]c2c1)N1CCCCC1 | 14.7% |
| O=C(c1cccc(C(F)(F)F)c1)N1CCOc2ccccc21 | -6.95% |
| O=C(c1cc(Cl)ccc1[N+](=O)[O-])n1cnc2ccccc21 | -11.9% |
| O=C(Nc1cccc([N+](=O)[O-])c1)c1ccc(CSc2ccccc2)cc1 | 3.55% |
| Cc1nn(Cc2ccc(C(=O)n3cccn3)o2)c(C)c1Br | -14% |
| CCOC(=O)C1CCCNC1=O (stereo not shown) | 14.8% |
| COc1ccc(/C=N/N2CCN(C)CC2)cc1O | 10.8% |
| OC(CNCCc1ccccc1)c1ccccc1 (stereo not shown) | -0.0558% |
| CCOC(=O)c1c(NC(=O)Nc2cccc(Cl)c2)sc(C)c1C | -16.5% |
| COc1ccccc1OCCNc1cc(N2CCOCC2)ccc1[N+](=O)[O-] | -16.6% |
| COC(=O)c1sccc1NC(=O)CN(C)NS(=O)(=O)c1ccc([N+](=O)[O-])cc1 | 2.53% |
| CCc1ccccc1NC(=O)CCN1C(=O)C2C3CCC(C3)C2C1=O (stereo not shown) | 10.8% |
| Oc1c(Cl)cccc1C=Nc1cc(C(F)(F)F)ccc1N1CCCC1 | -5.58% |
| O=[N+]([O-])c1ccc(S(=O)(=O)N2CCC3(CC2)OCCN3S(=O)(=O)c2cccs2)cc1 | -50.4% |
| COc1ccc(CCNC(=O)CSc2nnc(CNC(=O)c3ccco3)o2)cc1OC | 0.33% |
| COc1ccc(C(=O)N(Cc2ccc(N(C)C)cc2)C2CCS(=O)(=O)C2)cc1 (stereo not shown) | -10.3% |
